91 compounds from PMC4336329 (PLoS ONE, 2015) can be followed below.

Each structure is given as a SMILES string. About 2,200 (0.71%) of roughly 310,000 compounds showed an effect of 50% or more. The effect is printed as a negative number. Some of the results follow.

For the test, the target named is human ether-à-go-go-related gene (hERG) potassium channel (human, UniProt Q12809). As to the kind of experiment: primary screen, population patch clamp on CHO cells stably expressing hERG.
human ether-à-go-go-related gene (hERG) potassium channel, sequence (Q12809 whole entry, looked up): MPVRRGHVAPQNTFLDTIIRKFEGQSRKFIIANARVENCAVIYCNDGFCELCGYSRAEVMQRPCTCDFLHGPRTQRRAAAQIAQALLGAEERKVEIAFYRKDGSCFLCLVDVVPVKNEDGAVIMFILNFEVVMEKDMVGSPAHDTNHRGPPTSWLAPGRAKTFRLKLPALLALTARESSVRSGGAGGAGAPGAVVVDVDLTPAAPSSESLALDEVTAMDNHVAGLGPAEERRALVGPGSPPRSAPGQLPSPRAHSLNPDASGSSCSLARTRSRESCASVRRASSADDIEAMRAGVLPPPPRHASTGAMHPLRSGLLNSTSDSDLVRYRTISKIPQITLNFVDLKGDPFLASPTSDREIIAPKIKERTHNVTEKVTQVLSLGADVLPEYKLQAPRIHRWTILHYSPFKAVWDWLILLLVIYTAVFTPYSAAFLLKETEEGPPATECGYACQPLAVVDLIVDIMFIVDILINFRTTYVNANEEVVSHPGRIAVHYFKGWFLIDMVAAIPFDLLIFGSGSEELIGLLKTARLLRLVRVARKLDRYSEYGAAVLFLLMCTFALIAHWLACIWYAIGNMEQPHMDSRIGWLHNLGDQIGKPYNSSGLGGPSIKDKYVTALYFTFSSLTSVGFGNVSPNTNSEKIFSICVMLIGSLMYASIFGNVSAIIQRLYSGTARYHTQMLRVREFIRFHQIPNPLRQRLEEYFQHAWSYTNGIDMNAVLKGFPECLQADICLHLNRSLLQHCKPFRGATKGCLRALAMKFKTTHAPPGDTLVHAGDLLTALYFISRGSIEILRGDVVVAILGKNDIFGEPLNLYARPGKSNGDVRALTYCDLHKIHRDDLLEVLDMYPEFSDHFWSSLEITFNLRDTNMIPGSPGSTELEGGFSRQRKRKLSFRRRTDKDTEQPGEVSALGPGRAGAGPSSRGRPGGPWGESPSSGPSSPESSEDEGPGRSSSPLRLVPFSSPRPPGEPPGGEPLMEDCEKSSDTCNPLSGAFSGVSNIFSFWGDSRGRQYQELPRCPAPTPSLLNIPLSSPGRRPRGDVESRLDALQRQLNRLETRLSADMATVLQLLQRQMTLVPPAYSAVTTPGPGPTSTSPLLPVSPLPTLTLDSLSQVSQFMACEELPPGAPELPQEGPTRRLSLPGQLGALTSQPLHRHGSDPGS
In the case of `Cc1csc(SCC(=O)Nc2cccc3nsnc23)n1`, the “hERG current change (%, negative = inhibition) at 1uM” value was 0.429%.

`Cc1ccccc1-c1nc2cc(NC(=O)C3CC3)ccc2o1`: the “hERG current change (%, negative = inhibition) at 1uM” value was found to be 12.1%. With `CNc1c([N+](=O)[O-])cnn1-c1cccc(Cl)n1` the figure was 18.3%. For `NC(=O)CSc1nnnn1-c1ccccc1Cl` the value was 4.36%; for `Cc1ccc(NC(=S)NCCC2=CCCCC2)cc1`, 7.84%. For `Cc1ccccc1C(=O)N=c1c(C#N)cc2c(=O)n3cccc(C)c3nc2n1Cc1ccco1` the value was 4.01%; for `CCc1nn(CC(=O)N2CCC3(CC2)OCCO3)c(=O)c2cccn12`, 15.6%. As to `Cc1ccc(S(=O)(=O)Nn2cnnc2)cc1`, the “hERG current change (%, negative = inhibition) at 1uM” value stood at 9.63%. Turning to `O=C(NCc1ccco1)C1CCN(S(=O)(=O)N2CCC3(CC2)OCCO3)CC1`, the “hERG current change (%, negative = inhibition) at 1uM” value was found to be 8.59%. For `COc1ccc(C(=O)Nc2nnc(S(=O)(=O)Cc3ccc(F)cc3)s2)cc1`, the “hERG current change (%, negative = inhibition) at 1uM” value worked out at 12.9%. With `CCOC(=O)Cc1nnc(NC(=O)Nc2ccccc2)s1` the figure was 5.39%; with `C=CCN1CC(O)=C(c2ccccc2)C1=N`, 10.8%; with `C(=N\N1CCN(Cc2ccccc2)CC1)/c1ccccc1`, 15.2%.

In the case of `CN1C(=O)NC2(O)C(=O)c3ccccc3C12O` (stereo not shown), the “hERG current change (%, negative = inhibition) at 1uM” value turned out to be 5.85%. In the case of `O=C(CCc1ccccc1)N1CCCN(C(=O)CCc2ccccc2)CC1`, the “hERG current change (%, negative = inhibition) at 1uM” value is on record as -12.9%. For the compound `COc1ccc(Cl)cc1NC(=O)CSc1nc2sccc2c(=O)[nH]1`, the “hERG current change (%, negative = inhibition) at 1uM” value turned out to be 3.43%. Take `CCCCSc1nnc(-c2cc(Br)ccc2N)c(=O)[nH]1`: the “hERG current change (%, negative = inhibition) at 1uM” value is given as 0.939%. With `O/N=C(\c1ccc(Cl)cc1)c1cc2ccccc2o1` the figure was 15.4%; with `CCN(CC)CCNC(C(=O)Nc1cc(C(F)(F)F)ccc1Cl)c1ccccc1` (stereo not shown), -85.3%. Take `COc1cc(C2Nc3ccc4ncccc4c3C3=C2C(=O)CCC3)cc(OC)c1O` (stereo not shown): the “hERG current change (%, negative = inhibition) at 1uM” value was found to be 11.5%. `O=C(NC(NC(=O)c1ccccc1)C(=O)c1ccccc1)c1ccccc1`: the “hERG current change (%, negative = inhibition) at 1uM” value is 6.23%. For `O=C(COc1ccc([N+](=O)[O-])cc1Cl)NCCc1ccccc1` the value was -9.59%; for `COc1cc2nc(CN(C)Cc3ccc(F)cc3)[nH]c(=O)c2cc1OC`, 12.5%; for `CCOC(=O)C1(Cc2cccc(F)c2)CCN(Cc2cnn(CC)c2)CC1`, -4.74%. With `COc1ccc(/C=N/NC(=O)Cc2n[nH]c(=O)[nH]c2=O)cc1` the figure was 12.6%; with `CCOC(=O)Cn1ncc2c3ccccc3n(CC(=O)OCC)c2c1=O`, 13.4%.

In the case of `C=CCNc1nnc(SCC(=O)N2CCCCC2)c2ccccc12`, the “hERG current change (%, negative = inhibition) at 1uM” value is 10.3%. With `Cc1ccccc1-c1nnc(CS(=O)(=O)c2ccccc2)o1` the figure was -1.93%. With `CC(C)c1ccc(NC(=O)c2ccc3c(c2)C(=O)N(Cc2cccnc2)C3=O)cc1`, the “hERG current change (%, negative = inhibition) at 1uM” value was determined as 8.25%. As for `Cn1c2ccccc2n2c(=O)cc(-c3ccccc3)c(C#N)c12`, the “hERG current change (%, negative = inhibition) at 1uM” value turned out to be 1.18%.

Take `CCn1ccnc1[C@@H]1C[C@H]2CN(c3ccccc3OC)C(=O)[C@]23CCCN13`: the “hERG current change (%, negative = inhibition) at 1uM” value is recorded as 11.8%. With `O=C(Nc1ccc2c(c1)OCCO2)C1CCN(C(=O)c2ccc(F)cc2)CC1` the figure was 5.7%; with `COc1ccc([N+](=O)[O-])cc1N(CC(=O)N1CCCCC1)S(C)(=O)=O`, 14.3%; with `Cc1cc(C)c2[nH]c(O)c(N=Nc3ccc(C(=O)O)cc3)c2c1`, 18.2%. As to `Cc1c(NC(=O)CSc2nnnn2-c2ccc(C(=O)O)cc2)c(=O)n(-c2ccccc2)n1C`, the “hERG current change (%, negative = inhibition) at 1uM” value came to 16.2%.

Turning to `COC(=O)C(C)Oc1cc(OC(C)C(=O)OC)c2c(-c3ccccc3)cc(=O)oc2c1` (stereo not shown), the “hERG current change (%, negative = inhibition) at 1uM” value turned out to be 7.88%. Turning to `Cc1ccccc1NC1=CC(=O)CC(C)(C)C1`, the “hERG current change (%, negative = inhibition) at 1uM” value is -0.656%. Take `CCCCn1ccc(O)c(Cc2ccc(F)cc2)c1=O`: the “hERG current change (%, negative = inhibition) at 1uM” value is given as 6.54%. With `COc1ccc(/C=C/C(=O)c2c(C)nc3ccccn23)cc1` the figure was -0.193%. With `Cc1cc(=O)n2c(sc3ccccc32)c1C#N` the figure was 9.96%; with `C/C(=N\NC(=O)c1nnn(-c2nonc2N)c1C(C)C)c1ccc2ccccc2c1`, 10%; with `CCCCCCCC(=O)NNC(=O)Cc1ccccc1`, 0.0529%. For `CC(NC(=O)c1ccc(Cl)cc1)C(=O)N1CCCCC1` (stereo not shown) the value was 17.6%; for `COc1cccc(CNC(=O)c2c[nH]n3c(=O)c(Cl)c(C)nc23)c1`, 2.03%. `O=C(NCC1CCCO1)C(c1ccccn1)N(Cc1ccccc1Cl)C(=O)CN1C(=O)c2ccccc2S1(=O)=O` (stereo not shown): the “hERG current change (%, negative = inhibition) at 1uM” value is listed as 8.75%. In the case of `CCOC(=O)c1c(C)[nH]c(C(=O)COC(=O)c2ccccn2)c1C`, the “hERG current change (%, negative = inhibition) at 1uM” value is reported as -5.28%.

Take `O=S(=O)(NCC1OCCc2ccccc21)c1ccccc1` (stereo not shown): the “hERG current change (%, negative = inhibition) at 1uM” value was 6.18%.

As for `O=S(=O)(c1ccc(F)cc1)c1snnc1-c1ccccc1`, the “hERG current change (%, negative = inhibition) at 1uM” value is recorded as 13.1%. With `Cc1cc(NC(=O)Cc2ccccc2)c2ccccc2n1` the figure was 14%.

With `O=C1NN(c2ccccc2)C(=O)/C1=C\c1coc2ccc(O)cc2c1=O`, the “hERG current change (%, negative = inhibition) at 1uM” value is on record as -2.2%. With `COc1ccc(CCn2c(C(C)C)nc3c(c(=O)c4ccccc4n3C)c2=O)cc1` the figure was -14.3%; with `CCN(CC(=O)Nc1ccc(OC)cc1)C(=O)CSCC(=O)Nc1ccc(C)cc1`, 3.04%. For `COCc1c(C(=O)N2CCN(Cc3nc4ccccc4s3)CC2)oc2ccccc12` the value was -19.6%; for `O=C(/C=C\c1ccc(-c2ccccc2)o1)c1ccccc1`, -0.689%. For `Cc1cc2c(cc3c(=O)n(CC(=O)NCCCN4CC(C)CC(C)C4)ncn32)s1` (stereo not shown) the value was -13.2%; for `Cc1ccsc1C(=O)Nc1ccccc1N1CCCC1`, 4.57%. Regarding `COC(=O)[C@H](CCSC)NC(=O)Nc1cc(OC)cc(OC)c1`, the “hERG current change (%, negative = inhibition) at 1uM” value is 8.39%. For `CC(C)CC(=O)Nc1ccc(S(=O)(=O)Nc2nccs2)cc1` the value was 2.14%; for `CCOC(=O)c1ccc(NC(=O)CS(=O)(=O)c2cn(CC)c3ccccc23)cc1`, 4.04%; for `CCN(c1ccccc1)S(=O)(=O)c1ccc(C(=O)NNC(=O)c2ccccc2F)cc1`, 9.49%. Turning to `O=C(CSc1nnc(-c2ccccc2)c(-c2ccccc2)n1)NC1CCS(=O)(=O)C1` (stereo not shown), the “hERG current change (%, negative = inhibition) at 1uM” value turned out to be 11.8%. For `CC1(C)OCC(C2CC(c3ccccc3)NS(=O)(=O)O2)O1` (stereo not shown) the value was 21.3%. With `COc1ccc(-c2c(C#N)c(N)nc3c2CCCC3)cc1OC` the figure was 13.6%; with `Cc1ccc(S(=O)(=O)NNC(=O)c2sc(=S)n(C)c2C)cc1`, 16.2%. With `COc1cc(OC)c(N(C)C(=O)c2cn(C)c(=O)c3cc(OC)c(OC)cc23)cc1Cl` the figure was 1.96%; with `N#Cc1ccc(NC(=O)c2cccs2)nc1`, 13%; with `O=C(COC(=O)c1ccccn1)Nc1ccccc1Cl`, 4.54%. For `COc1ccc(N2CCN(C(CNC(=O)C(=O)NCc3cccnc3)c3ccco3)CC2)cc1` (stereo not shown), the “hERG current change (%, negative = inhibition) at 1uM” value is 10.6%. Regarding `O=C(COc1ccccc1Cl)N1CCN(c2ccccn2)CC1`, the “hERG current change (%, negative = inhibition) at 1uM” value was 10.4%.

As to `CCCOc1c(OC)cc(Cl)cc1C1NC(=O)NC(C)=C1C(=O)NCc1ccccc1` (stereo not shown), the “hERG current change (%, negative = inhibition) at 1uM” value worked out at 0.861%. For `Cc1cccc(Cn2c(N3CCN(CCO)CC3)nc3c2c(=O)[nH]c(=O)n3C)c1` the value was 7.07%; for `CCOC(=O)N1CCC(NC(=O)c2cc(C(=O)NCC(OC)OC)ccc2CO)CC1`, 10.5%; for `Cc1ccc(NC(=O)CN(C)C(=O)CSc2nnc(N)s2)cc1`, 6.57%. For `CC(C)CCNC(=S)Nc1ccc(Br)cc1` the value was -0.33%; for `Cc1ccc(OCC(=O)NC2CCCCCC2)cc1C`, 15.4%. For `O=C1c2ccccc2C(=O)N1Cc1nc2ccccc2c(=O)n1-c1cccnc1` the value was 2.33%. As for `CCOC(=O)c1nc2sc3c(c2c(=O)[nH]1)CCCC3`, the “hERG current change (%, negative = inhibition) at 1uM” value worked out at 9.77%. For `C=CCNC(=S)N/N=C1\CCS(=O)(=O)c2ccccc21` the value was 1.73%; for `Cc1ccc(Nc2nc(=O)c3cccnc3s2)cc1`, 2.37%. For `Cc1cc(/C=C2\NC(=O)N(Cc3ccc(Cl)cc3)C2=O)c(C)n1C` the value was 4.87%; for `NC(=O)c1cccc2c3c([nH]c12)CCCC3`, 5.66%; for `COc1ccc(-n2ncc3c(N4CCN(c5cccc(C)c5C)CC4)ncnc32)cc1`, 15.3%. `CCC1(CC)Cc2ccccc2-c2nc(NN)[nH]c(=O)c21`: the “hERG current change (%, negative = inhibition) at 1uM” value amounted to 14%. For `C=CCN(Cc1cccc(OC)c1OC)S(=O)(=O)N(C)C` the value was 1.71%; for `CCN(CC)CCSc1nc(O)c(Cc2ccccc2)c(=O)n1-c1ccccc1.Cl`, 6.98%; for `Cc1ccc(S(=O)(=O)Nc2ccc3c(c2)c2c(n3S(=O)(=O)c3ccc(C)cc3)CCCC2=O)cc1`, -2.75%. For `COC(=O)c1ccc(Cl)c(-c2ccc(/C=N/NC(=O)Nc3ccccc3)o2)c1` the value was 15.1%; for `O=C(Nc1cccc(Cl)c1)c1ccccc1`, 7.21%; for `CS/C(=C(/C#N)S(=O)(=O)c1ccc(Cl)cc1)N1CCOCC1`, 8.95%.

`CCCC(=N)C1=C(O)CC(CC(C)SCC)CC1=O` (stereo not shown): the “hERG current change (%, negative = inhibition) at 1uM” value is recorded as -6.51%. For `CC(c1ccon1)N(C)Cc1cn[nH]c1-c1ccc(F)cc1F` (stereo not shown) the value was 5.05%.
